The labels stand for the following.
B1: PhoQ; a variant is named by its letters at X, in order, P23837 (parent)
chain: MKKLLRLFFPLSLRVRFLLATAAVVLVLSLAYGMVALIGYSVSFDKTTFRLLRGESNLFYTLAKWENNKLHVELPENIDKQSPTMTLIYDENGQLLWAQRDVPWLMKMIQPDWLKSNGFHEIEADVNDTSLLLSGDHSIQQQLQEVREDDDDAEMTHSVAVNVYPATSRMPKLTIVVVDTIPVELKSSYMVWSWFIYVLSANLLLVIPLLWVAAWWSLRPIEALAKEVRELEEHNRELLNPATTRELTSLVRNLNRLLKSERERYDKYRTTLTDLTHSLKTPLXXLQXXLRSLRSEKMSVSDAEPVMLEQISRISQQIGYYLHRASMRGGTLLSRELHPVAPLLDNLTSALNKVYQRKGVNISLDISPEISFVGEQNDFVEVMGNVLDNACKYCLEFVEISARQTDEHLYIVVEDDGPGIPLSKREVIFDRGQRVDTLRPGQGVGLAVAREITEQYEGKIVAGESMLGGARMEVIFGRQHSAPKDE

Some of the results follow.

These results are taken from a collection of fitness landscapes (doi:10.1126/science.1257360).

In the test the parent is B1. Nature of the test: enrichment ratio after two sorts for PhoP signalling (ratio (wild type AVST 3.29)); higher = more functional. The settings on record: with PhoP (E. coli).
Regarding PSRI, the enrichment ratio was ≤ 0.25.
The same measure for DYEK: ≤ 0.25.
Consider TRPY, for which the enrichment ratio is ≤ 0.25.
Take NWPL: the enrichment ratio is ≤ 0.25.
For SVGR, the enrichment ratio was found to be 1.46.
For HAYI, the enrichment ratio was ≤ 0.25.
Take KIFF: the enrichment ratio is ≤ 0.25.
With YITL the figure was 0.736; with TRGG, ≤ 0.25.
With YKVK the figure was ≤ 0.25; with YYQI, ≤ 0.25; with QSKQ, ≤ 0.25.
Take GSHP: the enrichment ratio is ≤ 0.25.
For the variant YGEE, the enrichment ratio was ≤ 0.25.
The same measure for NMSE: ≤ 0.25; for MGSH: 1.72; for GQRM: ≤ 0.25.
For the variant LFIK, the enrichment ratio was ≤ 0.25.
The same measure for RPQM: ≤ 0.25; for RVEA: ≤ 0.25.
For ELAP, the enrichment ratio is ≤ 0.25.
The same measure for VIYM: ≤ 0.25.
The same measure for IQVC: ≤ 0.25; for VDGV: ≤ 0.25.
Consider LIMY, for which the enrichment ratio is ≤ 0.25.
With PNDP, the enrichment ratio is ≤ 0.25.
Take QGFV: the enrichment ratio is ≤ 0.25.
The same measure for HNSD: ≤ 0.25; for KQTR: ≤ 0.25.
For the variant MMFD, the enrichment ratio is ≤ 0.25.
Take RMIT: the enrichment ratio was ≤ 0.25.
In the case of HVFS, the enrichment ratio is ≤ 0.25.
With FMSP the figure was ≤ 0.25; with FCQP, ≤ 0.25.
With KKCL the figure was 1.66; with APIH, ≤ 0.25.
With QCGF the figure was 3.02; with NPIG, ≤ 0.25.
For the variant YVYA, the enrichment ratio was ≤ 0.25.
For the variant IVAT, the enrichment ratio was ≤ 0.25.
The same measure for ASSH: 9.29.
With EACQ the figure was ≤ 0.25; with EQNL, ≤ 0.25.
The same measure for WYGL: ≤ 0.25; for KDMA: ≤ 0.25; for EMMP: ≤ 0.25.
As to IPRR, the enrichment ratio was ≤ 0.25.
Take MPTY: the enrichment ratio was ≤ 0.25.
For KMIG, the enrichment ratio is ≤ 0.25.
In the case of MCWR, the enrichment ratio was ≤ 0.25.
With KFAL the figure was ≤ 0.25.
Turning to HTPM, the enrichment ratio was ≤ 0.25.
With LKWD, the enrichment ratio was ≤ 0.25.
As to LDYS, the enrichment ratio was ≤ 0.25.
With APRD the figure was ≤ 0.25.
In the case of APVC, the enrichment ratio is ≤ 0.25.
With MTRY, the enrichment ratio was ≤ 0.25.
Take FTRS: the enrichment ratio is ≤ 0.25.
The same measure for ILIA: ≤ 0.25; for LSRY: ≤ 0.25; for NKWI: ≤ 0.25.
In the case of FILS, the enrichment ratio was 0.438.
The same measure for QGNL: ≤ 0.25; for KIQF: ≤ 0.25; for VHKP: ≤ 0.25.
In the case of RPNY, the enrichment ratio is ≤ 0.25.
The same measure for LAAF: ≤ 0.25; for TIHR: ≤ 0.25.
Regarding YITC, the enrichment ratio is ≤ 0.25.
With SNWA the figure was ≤ 0.25; with LAHG, ≤ 0.25.
The same measure for SHEF: ≤ 0.25; for SYEH: ≤ 0.25.
In the case of GTND, the enrichment ratio is ≤ 0.25.
With VWNC the figure was ≤ 0.25; with LICW, ≤ 0.25.
The same measure for AARW: ≤ 0.25; for YCFE: ≤ 0.25; for FRNP: ≤ 0.25.
With TEWK, the enrichment ratio is ≤ 0.25.
As to EENP, the enrichment ratio is ≤ 0.25.
The same measure for HWAY: ≤ 0.25.
The same measure for QQCY: ≤ 0.25; for SHFQ: ≤ 0.25.
Turning to VLFT, the enrichment ratio was ≤ 0.25.
The same measure for PIPF: ≤ 0.25; for KILN: ≤ 0.25; for AMAH: 10.9.
With TQIY the figure was 1.32; with NRRT, ≤ 0.25; with PKVC, ≤ 0.25.
The same measure for VTTN: ≤ 0.25; for WTLP: ≤ 0.25; for SGFT: ≤ 0.25.
Regarding RLPI, the enrichment ratio was ≤ 0.25.
With QIRP the figure was ≤ 0.25.
As to NQVI, the enrichment ratio is ≤ 0.25.
With VQHA the figure was ≤ 0.25; with MYQL, ≤ 0.25; with PKMN, ≤ 0.25.
As to GCSC, the enrichment ratio is ≤ 0.25.
For MAIC, the enrichment ratio was ≤ 0.25.
For the variant FTWY, the enrichment ratio was ≤ 0.25.
Regarding THGE, the enrichment ratio is ≤ 0.25.
Take AHPL: the enrichment ratio is ≤ 0.25.
With KSES the figure was ≤ 0.25; with ELNT, ≤ 0.25.
Regarding SPRE, the enrichment ratio was ≤ 0.25.
With KCSL the figure was ≤ 0.25; with TRHH, 2.69.
With TADL the figure was 4.99; with PGFT, ≤ 0.25.
The same measure for NQSC: ≤ 0.25.
As for FFYI, the enrichment ratio was ≤ 0.25.
The same measure for RAYP: ≤ 0.25.
For the variant AILW, the enrichment ratio is ≤ 0.25.
Turning to EQST, the enrichment ratio is ≤ 0.25.
With TKVF the figure was 3.68; with FAHT, ≤ 0.25; with IRAC, ≤ 0.25.
The same measure for AQCI: 8.62; for WVHF: ≤ 0.25.
For LEHK, the enrichment ratio is ≤ 0.25.
Consider ADFQ, for which the enrichment ratio is ≤ 0.25.
As for VMRP, the enrichment ratio is ≤ 0.25.
In the case of HLFV, the enrichment ratio was ≤ 0.25.
With NSMD the figure was ≤ 0.25.
With HFTI the figure was ≤ 0.25.
The same measure for PNCQ: ≤ 0.25.
In the case of RDMQ, the enrichment ratio was ≤ 0.25.
As for NWIY, the enrichment ratio is ≤ 0.25.
With VRQG the figure was ≤ 0.25.
The same measure for IHMS: ≤ 0.25; for TCHK: 3.74; for FELM: 7.7.
The same measure for LKDV: ≤ 0.25; for GTMP: ≤ 0.25.
For the variant FYPQ, the enrichment ratio is ≤ 0.25.
The same measure for ARAY: 1.11; for WWKF: ≤ 0.25; for MERY: ≤ 0.25.
With YEKP the figure was ≤ 0.25; with HNFM, ≤ 0.25; with DMGD, ≤ 0.25.
The same measure for QFEN: ≤ 0.25; for EETK: ≤ 0.25; for REWQ: ≤ 0.25.
As to PMVW, the enrichment ratio is ≤ 0.25.
EANQ: the enrichment ratio was ≤ 0.25.
Take SKMN: the enrichment ratio is ≤ 0.25.
VFWN: the enrichment ratio is ≤ 0.25.
As for IAVE, the enrichment ratio is ≤ 0.25.
In the case of WKVR, the enrichment ratio was ≤ 0.25.
